# Laboratory results: the RNAGym collection of RNA variant scans (doi:10.7554/elife.90254)
# The source gives no read counts; variants with many changes may rest on few reads.
# B1: LINE1-mini (parent)
# chain: GGCAGAGCUCAACACAGCGUGGCAAAGUGGCUGUGGCUAGACUGCC
# Variants of: B1
# Assay: self-cleavage, relative activity (ratio to wild type); higher = more cleavage; in vitro, sequencing; the parent is a self-cleaving ribozyme
row,Variant,self-cleavage
1,A11U C13A G27A C31A G35A C42A U43G,0.01
2,G1A G2A C15G G36U,0.21
3,C8A A11G A12U C23A C46A,0
4,G27U C37G C45U,0.04
5,G5A U34A C37A,0.06
6,C3A G27A C37G,0.08
7,G1A C31U G44C,0.04
8,C10U A14C C23G A26C C37A,0.02
9,G1C U20G C45G,0.01
10,C10G C15A U38G,0.01
11,A4G C10G G44A,0.03
12,U9G A14G G30U A39G,0.1
13,A12C G40C C45A,0.01
14,A24G A39C G44U,0.03
15,G7A U9G G33A C45A,0.02
16,G1A C8U A12U C46G,0.67
17,A4U U20G C23U G35U,0.03
18,C23G G30C G33U C46A,0.02
19,G22U G35U A41C,0.04
20,G27C G36A C46A,0.16
21,A4C C10U A12U A26U,0.04
22,G5A G7C C8A G17C C31U,0.22
23,C31A G35U C42G U43C,0.03
24,C13U G33A C45U,0.09

row,Variant,self-cleavage
1,G7U A16G C37G,0.03
2,G7U U9A C13G G33A G36U A39U,0.02
3,C13U G27U G29U,0.21
4,A16C U28C U34G C45A,0.02
5,G27A G36C G44U,0.02
6,A4G G19U U32A C37U G44A,0.26
7,G21U G30C G35C A39C,0.06
8,A25G G27U G35A,0.01
9,G40A U43G C46U,0.01
10,G1A G2C A25C G27U A39G,0.15
11,C10U G27U G30C,0.37
12,C10U G17U G21A C31A G44A,0.25
13,C10G G17C G22C A24U G30A U32A A39G C42U,0.01
14,A11C C13U G19C G40A G44C,0.01
15,G7U U9A A14G,0.05
16,G1U G27C A41U,0.23
17,G5C G33U U34A,0.03
18,G7A C10A A14G C18U U28C C46G,0.02
19,A6U G29U G30U,0.54
20,A25C C31A G36A,0.08
21,A4C U28A C37A C46G,0.04
22,C3U G5A C13A G17U C45U,0.03
23,G1A G22A U32C U43A,0.07
24,C3U A6U A16G G44C,0.08

row,Variant,self-cleavage
1,G5A C13A A24G G30U C31A,0.07
2,A6C C15A G29C G40A,0.18
3,A4G G7U C10G G17A G22U G30C U38C,0.02
4,G7C G29A C37U,0.05
5,C15U G19A C23G C46U,0.83
6,G2C G19C U28A,0.05
7,C10U A26C U32G C42A,0.08
8,A4G U34C C37A,0.06
9,G1A C13U C31A A39C,0.01
10,G1C A24G G33A,0.01
11,A11U C13G A25G,0.04
12,G5A A6U A26U A39C G40U,0.12
13,G2A A14G C18G,0.09
14,U9C A14G G22U,0.04
15,C15G U20C C37A,0.02
16,G5C U20A G33C,0.03
17,C10U A12C G33A C45A,0.03
18,C3A C10G C13A U28A,0.03
19,C3U C13U U38G,0.01
20,C3A C10U G29U,0.37
21,A12U A26U U28G,0.07
22,C3A C31U C37G G40U,0.09
23,G17C C18G A26U G44A,0.18
24,G5C G29C C37A U38A,0.01

row,Variant,self-cleavage
1,G2U A4G G7U G19C G29U,0.04
2,G19A G22C U32C,0.13
3,A16U A24C U32A,0.07
4,G1C G2U C10G G40A C45G,0
5,G1U A16G C31U,0.06
6,C15A U20G G33U,0.99
7,C8A C23A G27A G36U,0.53
8,C3U G22A G27A G35A G40A U43C,0.05
9,G19U G27C G36C C42G,0.03
10,G7U G35U C45U,0.02
11,G22C U34A A41G,0.02
12,G7U U9C U43A,0
13,C13A G19C A24G,0.03
14,C10G G17U U28A A39U C42G,0.01
15,G5U C8U U9A A12G C18U,0.15
16,G7A U9G G27A U34A,0.09
17,G17C C18U G22U G36A,0.07
18,G5C U9C C46A,0.05
19,C8U A26U G33U,0.51
20,A16U C31U G33U,0.03
21,G1U C10A G17U G22U C31G,0.02
22,G19C G27C G30U G33U G35A U38A,0
23,G2U A12U G29U,0.04
24,U9G U20G A25G,0.09

row,Variant,self-cleavage
1,C10G A11U G30U C37A,0
2,C10U A16G G29C A39U,0.19
3,A4G G5A U9G U20A C46U,0.05
4,U9G C10U U20A U28A,0.02
5,G2A C3A C10U G44C,0.18
6,C13G C37G G44U,0.07
7,C10A A14G U28G G35U,0.01
8,A6U A11U G27U G30A,0.56
9,A11C A24U G36A C37U,0.01
10,C31G G44C C45U,0
11,C3G U20C G22C C23A G29C G36C C42A,0.02
12,C3A C8U C31U,0.45
13,C8A U9G C15G G35C,0
14,A6C U20A A41U,0.55
15,G7A G27U G29U,0.16
16,G1U G5U A16G C23U C31G U38A,0.01
17,G7A U9G G17A A25G U28A,0.1
18,C15G A16U C42U,0.04
19,U9C G21A G36A G40A,0.51
20,G1C A4U A12G G44C,0.01
21,C13U C18U U20G C23A A24G G29C,0.02
22,U9A C13U C31G U34G G36C C37A U38C C42U,0.1
23,G5A A6C U20A G35A,0.06
24,C8G G27U C45U,0.06

row,Variant,self-cleavage
1,G21U A24U U34A,0.06
2,C10A C13A G29C C31U C37U G44A,0.01
3,A16G G33A G36U,0.03
4,A6G A41G C46A,0.11
5,C3A C10U G35C G40U C45G,0.03
6,G1A C13U A39U,0.07
7,C15A C23A A41U,0.35
8,C10U C18G U34C,0.04
9,A4U G7U U9A U38A,0.24
10,G7A C8U G19C,0.11
11,G19C G40A U43C C46G,0.01
12,G7C U28G C37G,0
13,G5U U9G A12C A14G G21U U38G,0.02
14,C10G C37G A41U,0
15,A12C G21U C37G,0
16,G1C C8U A12G A14G,0
17,C10G C15U C23A U28A,0.08
18,G1A C3G G21A A24U A39G,0.42
19,G7U A11U C15U U20C G22C G27U U32G,0.05
20,G1C C13U C18G A25U G27U G30U G40C,0.07
21,C10U G17U C23U,0.05
22,U9A C15A G35A G44U,0.21
23,C3G A14U C42A,0.09
24,G7U A11C A16G G19A A25G G27U A39U,0

row,Variant,self-cleavage
1,C10A C13G G17U U20C G35U,0.04
2,C8U A16G G29U U32A G40A,0.05
3,C8G U32A G36C A39C,0.06
4,C13U C18U G29A G35C,0.2
5,C8A G21C G27C A41U,0.17
6,G21U G33U A41U C46A,0.16
7,C3A U32G G36A,0.1
8,G7C U20G U32C A39U,0.09
9,C3U C8A C13U G40U,0.07
10,G1U C10U C18G,0.02
11,C18A U32A C42A C46A,0.03
12,A4U A11U U34C G40U,0.02
13,U20G C31A G36C,0.03
14,A12U C13U G22A,0.15
15,C18G G19U G36U,0.04
16,C10U U32C G36U,0.03
17,C3A A6U U43A,0.13
18,G2U U9A C18G A26C,0
19,G7C U20C C37A,0.01
20,C18G G22U C37A,0.12
21,C13U A14U G19A,0.08
22,U9A C15U G30U A41U,0.05
23,U28A A39U U43A,0.14
